Among all 310,000 compounds or so, about 11,000 (3.5%) were called active. Inconclusive means that the source gave no clear call. Such entries were picked first, then a sample of the others. Calls follow the shape of the dose curve; as a rule, active = well fitted inhibition curve with a large enough effect; inconclusive = small, poorly fitted or top-dose-only effect, or effect the other way; inactive = flat fitted curve, though single readings scatter. Potencies of inconclusive entries are left out as doubtful fits.
Assay: VP16 counterscreen qHTS for inhibitors of ROR gamma transcriptional activity;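 also: Gal4-VP16 expression switched on by copper sulfate through the metallothionein promoter; nearly all actives have a fitted effect of over 50% in size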
Details: Drosophila S2 Gal4-VP16 UAS-luciferase, luminescence, 20 h; activity, negative = inhibition: at 53.6 µM (top of the series)
% is scaled to controls: 0 for no effect and ±100 for the full control effect; potency is read from the fitted curve at half-maximal effect; tags tell the direction and shape of the fitted curve.

| SMILES | Potency | activity, negative = inhibition |
| --- | --- | --- |
| CCC(=O)N/C(=N/c1nc(C)cc(C)n1)Nc1ccccc1 | inconclusive [inhibitor, single point] |  |
| COc1cccc(C(O)c2nc3ccccc3n2C(C)C)c1OC (stereo not given) | inconclusive [activator, single point] |  |
| O=c1cnc2cnc(Oc3ccccc3)nc2n1Cc1ccc(F)cc1 |  | inactive: -10.5% |
| CNC(=S)N/N=C/c1ccc(-c2cccc(C(=O)O)c2)o1 | inconclusive [inhibitor, single point] |  |
| COC(=O)c1cc(S(=O)(=O)n2nc(C)c(Br)c2C)c(Cl)cc1Cl |  | inactive: 16.9% |
| CCc1nnc(NC(=O)C2CCCN(c3nc4ccccc4s3)C2)s1 (stereo not given) |  | inactive: 10.2% |
| Cc1nn(CC(=O)N2CCN(c3ccc(Cl)cc3)CC2)c(=O)c2cccn12 |  | inactive: 0.101% |
| CCN1C(=O)[C@H]2[C@H]3[C@H](O)[C@H](O)C/C(=N/OC/C=C(\C)CCC=C(C)C)[C@H]3CC[C@@H]2C1=O |  | inactive: -12.9% [at 10 µM] |
| CCSc1nnc(-c2cc(Br)ccc2N=Cc2c(C)[nH]n(-c3ccccc3)c2=O)c(=O)[nH]1 | inconclusive [inhibitor, partial curve, poor fit] |  |
| Cc1onc(-c2ccccc2Cl)c1C(=O)Nc1nnc(-c2cccc([N+](=O)[O-])c2)s1 |  | inactive: -5.44% |
| COC(=O)c1ccc(-c2noc(CN3CCCC(CNC(C)=O)C3)n2)cc1 (stereo not given) |  | inactive: 3.19% |
| CCOc1ccc(C(=O)NC(=S)Nc2ccccc2N2CCCCC2)cc1[N+](=O)[O-] | active: 0.501 µM |  |
| CC(=O)c1cccc(S(=O)(=O)Nc2ccc3nc(C)sc3c2)c1 | inconclusive [inhibitor, single point] |  |
| CCOc1cc2[nH]c(=S)n(CC3CCCO3)c(=O)c2cc1OCC (stereo not given) | inconclusive [inhibitor, single point] |  |
| O=C(Nc1cc(C(F)(F)F)ccc1N1CCCC1)c1ccc2c(c1)OCO2 |  | inactive: -10.8% |
| O=C(O)c1ccc(N/N=C/C(Br)=C/c2ccccc2)cc1 | active: 10 µM |  |
| COC(=O)C1=C(C)NC(C)=C(C(=O)OC)C1c1ccccc1OCc1c(C)no[n+]1[O-] |  | inactive: 3.26% |
| COc1ccc(Cl)cc1NC(=S)NCCC(c1ccccc1)c1ccccc1 | active: 4.47 µM |  |
| CCCCC1=NN(C(=O)c2cccnc2)C(O)(C(F)(F)F)C1 (stereo not given) | inconclusive [inhibitor, partial curve, poor fit] |  |
| CC1=C(C(=O)c2ccccc2)C(c2ccc(N3CCOCC3)cc2)NC(=O)N1 (stereo not given) |  | inactive: -1.71% |
| BrC(/C=N/Nc1nc(N2CCOCC2)nc(N2CCOCC2)n1)=C/c1ccccc1 | inconclusive [inhibitor, single point] |  |
| Cc1ccc(C)c(NC(=S)NC(NC(=O)/C=C/c2ccccc2)C(Cl)(Cl)Cl)c1 (stereo not given) | active: 11.2 µM |  |
| CCOc1ccc(-c2nnc3ccc(SCc4ccc(C(=O)OC)o4)nn23)cc1 | inconclusive [inhibitor, partial curve] |  |
| Cc1cccc(NC(=O)CSc2ncnc3sc(C)c(C)c23)n1 |  | inactive: -11.6% |
| Cc1ccc(CCNC(=O)C2CCC(=O)N(Cc3ccccc3F)C2)o1 (stereo not given) |  | inactive: 7.82% |

| SMILES | Potency | activity, negative = inhibition |
| --- | --- | --- |
| CC(C)CC(c1nnnn1C1CCCC1)N1CCN(c2ccccc2F)CC1 (stereo not given) | inconclusive [inhibitor, single point] |  |
| CCNC(=S)/N=C(\N)Nc1nc(C)c2cc(C)ccc2n1 |  | inactive: -1.7% |
| COc1cccc(OCCOc2ccc(/C=C3/SC(=S)NC3=O)cc2)c1 | inconclusive [inhibitor, single point] |  |
| N#CC1=C(N)NC(SCC(=O)O)=C(C#N)C12CCCC2 |  | inactive: -22.1% |
| CCCCc1ccc(NC(=S)N2CCN(C(=O)OCC)CC2)cc1 | inconclusive [inhibitor, single point] |  |
| c1ccc(CSc2ccc3nnc(-c4ccccn4)n3n2)cc1 |  | inactive: 11.6% |
| Nc1cccc2c1C(=O)N(C(=O)c1cccc(S(=O)(=O)N3CCCCCC3)c1)C2=O | inconclusive [inhibitor, single point] |  |
| O=C(N/N=C/c1cc([N+](=O)[O-])ccc1O)Nc1ccccc1 | active: 22.4 µM |  |
| COc1ccc2c(c1)nc(N)n2Cc1ccccc1 | inconclusive [inhibitor, single point] |  |
| CC1CC(C)(C)NC(=S)N1CCC(=O)N1CCN(c2ccccc2)CC1 (stereo not given) | inconclusive [inhibitor, single point] |  |
| CCOC(=O)c1c(-c2ccccc2)nc2cc(C)ccn12 |  | inactive: -7.62% |
| On1c2c(c3c4nonc4ccc31)CCCC2 | active: 22.4 µM |  |
| COc1ccc(S(=O)(=O)N(C)CC(=O)N2CCN(Cc3ccccc3)CC2)cc1C |  | inactive: 4.75% |
| O=C(Nc1ccc(F)cc1)Nc1cc(OCC(F)(F)F)cc(OCC(F)(F)F)c1 | active: 6.31 µM |  |
| COC(C#CCCN(C)C)(c1ccccc1)c1ccccc1 |  | inactive: -3.3% |
| COC(=O)c1cc(C(=O)Nc2nnc(CC(C)(C)C)s2)cc([N+](=O)[O-])c1 | active: 8.91 µM |  |
| CC(C)=C1C2C=CC1C1C(=O)N(c3ccc4c(c3)OCO4)C(=O)C21 (stereo not given) | inconclusive [inhibitor, single point] |  |
| CN(C)S(=O)(=O)c1cccc(NC(=S)N/N=C/C(c2ccccc2)c2ccccc2)c1 | active: 5.01 µM |  |
| Cn1c(Nc2ccc(F)cc2)nc2ccccc21 |  | inactive: -16.1% |
| COc1ccc(Cl)cc1NC(=O)C1CSC(c2ccncc2)=N1 (stereo not given) | inconclusive [inhibitor, single point] |  |
| O=C(NCc1nc2ncc(Br)cc2[nH]1)c1ccccc1 | inconclusive [activator, single point] |  |
| CC(C)(C)CC(=O)NC(=S)NCCc1ccccc1 | active: 10 µM |  |
| O=C(/C=C/Nc1ccc(F)cc1)c1ccc(Br)cc1 | inconclusive [activator, single point] |  |
| Cc1ccc(C)c(N2CCN(C(=O)CCS(=O)(=O)c3ccc4c(c3)NC(=O)CO4)CC2)c1 |  | inactive: -14.5% |
| CC(C)(C)CC(=O)NC(=S)Nc1ccccc1[N+](=O)[O-] | inconclusive [inhibitor, single point] |  |

From PubChem BioAssay AID2546 (National Center for Advancing Translational Sciences (NCATS), 2010)
